The values that follow come from the RNAGym collection of RNA variant scans (doi:10.1093/nar/gkz1192).

First the molecules themselves.
B1: CPEB3 Ribozyme (parent)
chain: UAACAGGGGGCCACAGCAGAAGCGUUCACGUCGCAGCCCCUGUCAGAUUCUGGUGAAUCUGCGAAUUCUGCUGUAUAUCUC

The source gives no read counts; variants with many changes may rest on few reads.

The data set covers variants of B1. Nature of the data set: self-cleavage, relative activity (ratio to wild type); higher = more cleavage; in vitro, sequencing. In outline:
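Barcoded CPEB3 ribozyme mutants, produced by rounds of error-prone PCR, self-cleaved while being transcribed with T7 RNA polymerase for 5 hours at 37°C and during a subsequent 15 min DNase I step before EDTA was added. Sequencing of template-switched cDNA on Illumina gave cleaved and total reads, and DNA sequencing assigned barcodes to variants. Each variant's relative activity is its cleaved/total read fraction divided by the unmutated ribozyme's fraction, averaged across three batches. A variant needed a minimum of 5 reads.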
Consider UAACAAGGGGCCCCAGCAGAAGCGUCCACGUCGCAGCCCCUGUCAGAUUCUGGUGUAUCUGCUAGUUCUGCUGUAUAUCUC [G6A A13C U26C A56U G63U A65G], for which the self-cleavage worked out at 0.19.

Consider UAACAAGGGGCCACGGCAGAAGCGUUCACGUCGCAGCCCCCGUCAGAUUCUGGUGAAUCAGCGAAUUCUGCUGUAUAUCUC [G6A A15G U41C U60A], for which the self-cleavage was 0.36.

As for UAACAAGGGGCCACGGCAGAAGCGUUCACGUCGCAGCCCCUGUCGGAUUCUGGUGAAUCUGCGGAUUCAGCUGUAUACCUC [G6A A15G A45G A64G U69A U78C], the self-cleavage stood at 0.06.

With UAACUGGGGGCCACAGCAGAAGCGUUCACGUCGCAGCCCCUGUCAGAUUCUGGUGAAUCCGCGAAAUCUGCUGUAUAUCUC [A5U U60C U66A], the self-cleavage amounted to 0.16.

As for UAACAAGGGGCCUCAGCAGAAGCGUUCGCGUCGCAGCCCCUGUCAGAUUCUGGUGAGUCUGCGAAUUCUGCAGUAUAUCUC [G6A A13U A28G A57G U72A], the self-cleavage is 0.06.

Take UAACAAGGGGCCACAGCGGAAGCGCUCACGUCGCAGCCCCUGUCGGAUUCUGGUGAAUCUGCGAAUUCUGCUGUUUAUCUC [G6A A18G U25C A45G A75U]: the self-cleavage amounted to 0.03.

UAACAAGGGGCCACUGCAGAAGCGUUCACGUCGCAACCCCAGUCAGAUUCUGGUGAAUCUGCGCAUUCAGCUGUAUAUCUC [G6A A15U G36A U41A A64C U69A]: the self-cleavage was 0.07.

UAACUGGGGGCCACAGCAGAAGCGUUCACGUCGCAGCCCCUGUCAGAUUCAGGUGUAUCUGCGAAUUCUGCUGUAUAUCUC [A5U U51A A56U]: the self-cleavage is 0.4.

On to UAACUGGGGGCCACAGCAGAAGCGUUCACGUCGCAGCCCCUGUCAGAUUCUGGCGAAUCUGCGAAUUCUGCUGAGUAUCUC [A5U U54C U74A A75G], for which the self-cleavage stood at 1.25.

UAACAAGGGGCCUCAGCUGAAGCGUUCACGUCGCAGCCCCUGUCAGAUUCUGGCGAAUCCGCGAAUUCUGCUGUAUAUCUC [G6A A13U A18U U54C U60C]: the self-cleavage is 0.08.

Take UAACAAGGGGCCGCAGCAGAAGCGUUCACGUCGCGGCCCCGGUCAGAUUCUGGUGAAUCUGCGAAUUCUGCUGUAUAUCUC [G6A A13G A35G U41G]: the self-cleavage was 0.12.

Turning to UAACUGGGGGCCACAGCAGAAGCGUUCACGUCGCAGCCCCUGUCAGAUUCUGGUGAAUCUGCGAAUUCUGCCGUUUAUCUC [A5U U72C A75U], the self-cleavage turned out to be 1.27.

Turning to UAACUGGGGGCCACAGCAGAAGCGUUCACGUCGCAGCCCCUGUCAGAUUCUGGUGAAUCUGCGAAUCCUGCUGUAUAUAUC [A5U U67C C79A], the self-cleavage is 0.24.

As for UAACAAGGGGCCGCAGCGGAAGCGUUCACGUCGCAGCCCCUGUCGGAUUCUGGUGAAUCUGCGAAUUCUGCUGUAUAUCUC [G6A A13G A18G A45G], the self-cleavage was determined as 0.07.

With UAACUGGGGGCCACAGCAGAAGCGUUCACGUCGCAGCCCCUGUCAGAUUCUGGUGAAUCUGCGAAUUCUGCUGUACAUCAC [A5U U76C U80A], the self-cleavage is 1.28.

As to UAACUGGGGGCCACAGCAGAAGCGUUCACGUCGCAGCCCCUGUCAGAUUCUGGAGAAUCUGCGAAUUCGGCUGUAUAUCUC [A5U U54A U69G], the self-cleavage was 0.86.

For the variant UAACAAGGGGCCGCAGCAGAAGCGUUCACGUCGCAGCCCCUGACAGAUCCUGGUGAGUCUGCGUAUUCUGCUGUAUAUCUC [G6A A13G U43A U49C A57G A64U], the self-cleavage stood at 0.14.

For UAACAAGGGGCCGCAGCAGAAUCGUUCACGUCGCAGCCCCUGUCAGAUUCUGGUGAAUCUGCGCAUUCCGCUGUAUAUCUC [G6A A13G G22U A64C U69C], the self-cleavage stood at 0.04.

In the case of UAACUGGGGGCCACAGCAGAAGCGUUCACGUCGCAGCCCCUGUCAGAUUCUGGUGAAUCAGCGAAUUCUGCUGUAUUUCUC [A5U U60A A77U], the self-cleavage was 0.8.

UAACAAGGGGCCUCAGCAGAAGCGUUCACGUCGCAGCCCCAGUCAGAUUCUGGUGAAUCUGCGAAUUCCGCCGUAUAUCUC [G6A A13U U41A U69C U72C]: the self-cleavage stood at 0.14.

For UAACAAGGGGCCACAGCGGAAGCGUUAACGUCGCAGCUCCUGUCAGAUUCUGGUGAAUCUGCGAAUUCUGCUGUACACCUC [G6A A18G C27A C38U U76C U78C], the self-cleavage was determined as 0.04.

On to UAACAAGGGGCCACUGCGGAAGCGUUCACGUCGCAGCCCCUGACAGAUUCUGGUGAGUCUGUGAAUUCUGCUGUAUAUCUC [G6A A15U A18G U43A A57G C62U], for which the self-cleavage turned out to be 0.06.

For the variant UAACUGGGGGCCACAGCAGAAGCGUUCACGUCGCAGCCCCUGUCAGAUCCUGGUGAACCUGCGAAUUCUGCUGUAUAUCUC [A5U U49C U58C], the self-cleavage was 0.1.

For UAACAAGGGGCCACGGCAGAAGCGCUCACGUCGCAGCCCCUGUCAGAUUCUGGUGAAUCUGCGAGUUCUGCUGUAUAUCUC [G6A A15G U25C A65G], the self-cleavage came to 0.05.

UAACAAGGGGCCACUGCUGAAGCGUUCACGUCGCAGCCUCUGUCAGAUUCGGGUGAACCUGCGAAUUCUGCUGUAUAUCUC [G6A A15U A18U C39U U51G U58C]: the self-cleavage is 0.16.

Take UAACUGGGGGCCACAGCAGAAGCGUUCACGUCGCAGCCCCUGUCAGAUUCUGGCGAACCUGCGAAUUCUGCUGUAUAUCUC [A5U U54C U58C]: the self-cleavage worked out at 0.42.

On to UAACAAGGGGCCACAGCGGAAGCGUUCGCGUCGCAGCCCCUGUCAGAUUCUGGUGAAUCUGCGAAUUCUGCUGUAUAUCUC [G6A A18G A28G], for which the self-cleavage is 0.31.

Regarding UAACAAGGGGCCACAGCGGAAGCGUUCUCGUCGCAGCCCCUGUCAGAUUCUGGUGAAUCUGCGAAUUCUGCUGUAUAUCUC [G6A A18G A28U], the self-cleavage was 0.24.

In the case of UAACAAGGGGCCUCAGCAGAAGAGUUCACGUCGCAGCCCCUGUCAGAUUCUGGUGGAUCUGCGAAUUCUGCUGUAUAUCUC [G6A A13U C23A A56G], the self-cleavage worked out at 0.27.

As for UAACAAGGGGCCACUGCAGAUGCGUUCACGUCGCGGCCCCUGUCAGACUCUGGUGGAUCUGUGAAUUCUGCUGUAUAUCUC [G6A A15U A21U A35G U48C A56G C62U], the self-cleavage was found to be 0.03.

Consider UAACAAGGGGCCACGGCAGAAGCGUUCGCGUCGCAGCCCCUGUCAGAUUCUGGUGAAUCUGCGAAUUCUGCCGUAUAUCUC [G6A A15G A28G U72C], for which the self-cleavage was found to be 0.29.

Consider UAACAAGGGGCCACUGCAGAAGCGUUCACGUCGCGGCCCCUGACAGAUCCUGGUGAAUCUGCGAACUCUGCUGUAUACCUC [G6A A15U A35G U43A U49C U66C U78C], for which the self-cleavage turned out to be 0.04.

Take UAACAAGGGGCCACGGCAGAAGCGUUCACGUCGCAGCCCCUGUCGGAUUCUGGUGAAUCUGCGAAUUCUGCUGUAUAUCUC [G6A A15G A45G]: the self-cleavage is 0.3.

Take UAACAAGGGGCCUCAGCAGAAGCGUCCACGUCGCAGCCCUUGUCAGACUCUGGUGAAUCUGCGAAUUCUGCUGUAUAUCUC [G6A A13U U26C C40U U48C]: the self-cleavage came to 0.23.
